# The list shows a part of the results.
# T1: UNK ZnF1-6 (called full-length) (human, UniProt Q9C0B0 30-357)
# T1 sequence: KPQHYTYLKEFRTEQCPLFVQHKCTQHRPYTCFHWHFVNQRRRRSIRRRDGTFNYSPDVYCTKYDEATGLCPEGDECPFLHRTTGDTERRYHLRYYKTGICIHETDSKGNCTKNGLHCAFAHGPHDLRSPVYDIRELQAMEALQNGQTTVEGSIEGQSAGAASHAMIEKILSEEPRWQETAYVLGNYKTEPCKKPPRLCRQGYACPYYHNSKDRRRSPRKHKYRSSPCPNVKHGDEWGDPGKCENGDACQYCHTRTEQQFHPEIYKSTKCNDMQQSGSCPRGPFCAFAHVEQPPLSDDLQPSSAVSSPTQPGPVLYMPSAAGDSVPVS
# B1: chr11:8104520:8104621:+|3pUTR|ENSG00000166402|msi1|total|mutant (ssRNA)
# RNA: GGGAGUUCUACAGUCCGACGAUCGGCAAUCAGCAAUCAACUGAGGUUUCUUAAUUGUGAUUAUAUUCCUGAGAAUGAAUGAGCCGGAAAGGAAUAAGGAUGUUGUUAUGAUCGCCUGUGGAUUUUGUCCAUUCAUCUCAUGCUCAACAGAGGAUUGAGCAUCA
# B2: chr10:30820206:30820444:-|three_prime_utr|ENSG00000183621|control|control|control (ssRNA)
# RNA: GGGAGUUCUACAGUCCGACGAUCCUUAUCUAAUCUCCAAAUGAAGAAUGGGCCCAUCUGACAUAUCCUAUGAGCACAAAGCUUAGGGGACUCUUCACCGAAACCUAGACAAAUAUUUGAAUGCAUUUUUUUUUUUUUUUUUUGCAACAGAGGAUUGAGCAUCA
# B3: chr11:74334375:74334476:-|3pUTR|ENSG00000165434|msi1|FALSE|unique (ssRNA)
# RNA: GGGAGUUCUACAGUCCGACGAUCUUUUUGUUUUAUUUUUAAAAUGUGUAAAACAUCUUUUGUUUUAUAUGCUUUUAAGAAUGUAGAUUGUAAUUUAGGAAAUGGCAUAUAUUCUGCAAAGUGGUAUAAUGUUGUAUAUAUGAACAACAGAGGAUUGAGCAUCA
# B4: chr3:160432293:160432405:+|CDS|ENSG00000113810|unk|total|mutant (ssRNA)
# RNA: GGGAGUUCUACAGUCCGACGAUCGAAUUGUAUUUGCAACGGGCCGCAGAAUUGGACAAAAUUACUUAUGAAAGAGACAGUUUCCGACAGGCAUAUGAAGAUCUUCGGAAACAAAGGCUUAAUGAAUUUAUGGCAGGUUUUUAUCAACAGAGGAUUGAGCAUCA
# B5: chr16:75111859:75112521:-|three_prime_utr|ENSG00000166816|control|control|control (ssRNA)
# RNA: GGGAGUUCUACAGUCCGACGAUCGCUGCAGGAGGAGGUGGGCGCCGUGGGCGUGGAGACCAUGCGGCAGCUCAAGGCCGUGCUAGACCCCCAAGGCCUCAUGAAUCCAGGCAAAGUGCUGUGAAGGGGGUCUGAGCACUUAGCCAACAGAGGAUUGAGCAUCA
# B6: chr18:2547350:2547451:-|CDS|ENSG00000101574|unk|total|mutant (ssRNA)
# RNA: GGGAGUUCUACAGUCCGACGAUCCCGACAGAAGCACCUACGUUUUAUAAAGGAAGAACUUUAUCCCUCUUGGUCUGUGGAGGCCGUUGCUGAGUGGCACUGGGUAAAAGUAAGUUCAGAAGUCCGCUUAUUUGUUAAUACAGCCAACAGAGGAUUGAGCAUCA
# B7: chr1:16124349:16124452:-|3pUTR|ENSG00000142627|msi1|FALSE|unique (ssRNA)
# RNA: GGGAGUUCUACAGUCCGACGAUCUUUGUUUUGUUGGACAUUUUUUUCGAAUCUUAAUUUAUUAUUUUUUUUAUAUUUAUUGUUAGAAAAUGACUUAUUUCUGCUCUGGAAUAAAGUUGCAGAUGAUUCAAACCGAUCUUGGCUCAACAGAGGAUUGAGCAUCA
# B8: chr2:32508095:32508220:+|CDS|ENSG00000115760|unk|FALSE|unique (ssRNA)
# RNA: GGGAGUUCUACAGUCCGACGAUCAGCCGAAGUAGCUUCUGCUGUCUGCCUUAGACUACAUCGUCCACGGGAUGCCAGCACAUUAGGCCUUUCACAAAUUAAAUUAUUGGGGCUCACUGCUUUUGGUACCACCUCUUCUGCAACCAACAGAGGAUUGAGCAUCA
# B9: chr12:100626600:100626701:+|3pUTR|ENSG00000139354|unk|FALSE|unique (ssRNA)
# RNA: GGGAGUUCUACAGUCCGACGAUCAAUUUUAUCAUCAAGUAUUCCCUUAUAAAACCAAGUAACACUUCUUUAUCAGUAACUUUUAGAACUUAAAAGAAAGCAAAAAGUAAAUGGAAUUGUAGGCAAUUUAUGAAUCCUAGUAGACAACAGAGGAUUGAGCAUCA
# B10: ENSG00000107863:be:win_2351|CDS|ENSG00000107863|bound_else_gene|NA|bound_elsewhere_windowed (ssRNA)
# RNA: GGGAGUUCUACAGUCCGACGAUCAAAGAAUGGAGGAAAGAAAAGCCUCGAGUACCAGUCCGCCUGGCGAUUCUUUGGCUUCCAUCCCAUUUAUAGAUGAACCAACUAGCCCUAGCAUUGAUCAUGAUAUUGCACAUAUCCCUGCAACAGAGGAUUGAGCAUCA
# B11: chr3:13816257:13818943:-|three_prime_utr|ENSG00000154764|control|control|control (ssRNA)
# RNA: GGGAGUUCUACAGUCCGACGAUCGAAUUCUUCCACCUCGUCGGGAUCCGUUUUCUGCAAUCAAAGUGGACUGCUUGCUUUCCUAGCAGGAUGAUUUUGUUGCUAGGACAAGGAGCCGUGUAGAAGUGUACAUAACUAUUCUUUCAACAGAGGAUUGAGCAUCA
# B12: chr20:45097661:45098695:-|CDS|ENSG00000124134|control|control|control (ssRNA)
# RNA: GGGAGUUCUACAGUCCGACGAUCGCACGUGCUCGACGAGCUGUGCGUCUUCGCCUUUGGCCAGGAGGCCGACUACUGGGGCCUAGGCGAGAACGCGCUUGCCGCGUGCUGCCGCGCGCGCUACCUGGAGAGGCGGCUGACCCACAACAGAGGAUUGAGCAUCA
# B13: chr2:189033597:189033698:-|3pUTR|ENSG00000204262|msi1|FALSE|unique (ssRNA)
# RNA: GGGAGUUCUACAGUCCGACGAUCAAGAGUGGGGUAUAUAGAGCCACAACACAUGUUUAUUUUGCUUGGCUGCAGUUGAAAAAUAGAAAUUAGUGCCCUUUUGUGACCUCUCAUUCCAAGAUUGUCAAUUAAAAAUGAGUUUAACAACAGAGGAUUGAGCAUCA
# B14: chr9:77717828:77717929:-|3pUTR|ENSG00000156052|unk|FALSE|unique (ssRNA)
# RNA: GGGAGUUCUACAGUCCGACGAUCGUGCCUCAUAUCUGAAACAAAGGGAAAUAACACACCCAUUCAAAAGUAAAUAAAUCUCCUAGAAGUUUUUGUUUUUAACAUUUCCAUAUAAAGAGCUCUGUUGAAUGUCAUGAAUAGACUCAACAGAGGAUUGAGCAUCA
# B15: chr17:50110931:50111032:+|3pUTR|ENSG00000005882|unk|FALSE|unique (ssRNA)
# RNA: GGGAGUUCUACAGUCCGACGAUCUGUGCCCAGACAUGUGUGCUCAGGGUGGCUUUCUCCCUAGGACCUUCUGUGUAUAUAGUUAGUUUUAUAACCCUGAAUGCCCCCACCCUUCCCCUAAGCACACAGGGGUUAAAGCUGUGUCAACAGAGGAUUGAGCAUCA
# B16: chr6:133987709:133987810:+|3pUTR|ENSG00000028839|unk|FALSE|unique (ssRNA)
# RNA: GGGAGUUCUACAGUCCGACGAUCAAUAACAAAUAGGAAUUUUUUUUCUUGCAGAUUAGAAAUAAAAACGUGUAUAUAAACUCUAGGGAACCAGACUAGAAGUUUAUAGAUAAAGGAUAAUGUUUUAUGUUGCUAAUUUAAUAUCAACAGAGGAUUGAGCAUCA
# B17: ENSG00000131504:stop:overlap|stop_codon|ENSG00000131504|stop_codon|NA|stop_codon (ssRNA)
# RNA: GGGAGUUCUACAGUCCGACGAUCAGGAGGAGGAGACCUUUAAAUUGCCAACAGGAAGGCCGGGUGUGCAGUCACAUCUCUGCUAGCUUCGGAGCUGACCAAGGAUGAUGCCAUGGCUGCUGUUCCUGCCAAGGUGUCCAAGAACAACAGAGGAUUGAGCAUCA
# B18: chr10:96982068:96982170:+|CDS|ENSG00000196233|unk|total|mutant (ssRNA)
# RNA: GGGAGUUCUACAGUCCGACGAUCUCAGCAUUGGCAUCAGAGGCAGUUUUCACUCCUAAGCAGACCCUUACAAUUCCAGCCCCCCGACAUACAGCCGAUGUGCAGCUUCCCAGAGAAGACAACCCUGAAGAACCCCGCAAGGAACAACAGAGGAUUGAGCAUCA
# B19: chr6:21231557:21231658:+|3pUTR|ENSG00000145996|msi1|total|mutant (ssRNA)
# RNA: GGGAGUUCUACAGUCCGACGAUCAAGCCGCUGGGAUUACAGGCAUGCGCCACCAAGCCCAGACAAUUUUUUUGUGUUUUCAGCCGAGACGGAGUUUCACCAUGUUGGCCAGGCCCGUCUCGAACUCCUGACCUCAAGUGAUCCCAACAGAGGAUUGAGCAUCA
# B20: chr5:72207278:72207408:+|3pUTR|ENSG00000131711|msi1_unk|total|mutant (ssRNA)
# RNA: GGGAGUUCUACAGUCCGACGAUCAGAGAACAAUGACCUCAUUUUAUUUUCUAUGUCCGUUAUUUAUUUCAAAAUUAACAUUUCCGUUGAUUUUUGUCUGAUAAGUCUAUGUUUUGCACUGCUAACUAUGAUGAGGGUUUAAAACAACAGAGGAUUGAGCAUCA
# B21: chr19:7926739:7926850:-|3pUTR|ENSG00000104980|unk|total|mutant (ssRNA)
# RNA: GGGAGUUCUACAGUCCGACGAUCAGGGUGGGACCCGGGACCCGCGGCUCAGUGGCCCGCCCGCCACGUCAGCCAAGCCACUUCCGGUCCAUUUUUUAAUUUUAACAGUGCUCUUCCAUCUUGUGCAUAAGCCUGAGAUUUGGACAACAGAGGAUUGAGCAUCA
# B22: chr5:138184526:138184629:+|CDS|ENSG00000112984|unk|total|mutant (ssRNA)
# RNA: GGGAGUUCUACAGUCCGACGAUCGUGCAUGCCCCACCUAUGCAACUGGGAUUCCCAUCCCUGCACUCGUUCAUCAAGGAACACCGUCUUCAGGUAUCCCCCAGCUCCGAGAAAGGGGCUAAGGCAGACACAGGCCUUGAUGAUCAACAGAGGAUUGAGCAUCA
# Target: T1, UNK ZnF1-6 (called full-length)
# Assay: nsRBNS (natural sequence RNA bind-n-seq); RBNS binding buffer (assumed for nsRBNS): 25 mM Tris pH 7.5, 150 mM KCl, 3 mM MgCl2, 0.01% Triton X-100, 500 ug/ml BSA, 20 U/ml SUPERase-In, 4 C; UNK is unkempt and MSI1 is Musashi-1; names of the RNAs are library labels; protein concentration not given here; high values mean tight binding
row,Binder,binding signal
1,B1,0.251 enrichment R
2,B2,27.7 enrichment R
3,B3,3.22 enrichment R
4,B4,0.43 enrichment R
5,B5,0.721 enrichment R
6,B6,0.529 enrichment R
7,B7,8.98 enrichment R
8,B8,1.06 enrichment R
9,B9,4.55 enrichment R
10,B10,2.15 enrichment R
11,B11,0.433 enrichment R
12,B12,0.576 enrichment R
13,B13,1.5 enrichment R
14,B14,0.799 enrichment R
15,B15,6.79 enrichment R
16,B16,2.44 enrichment R
17,B17,1.71 enrichment R
18,B18,0.952 enrichment R
19,B19,0.552 enrichment R
20,B20,0.579 enrichment R
21,B21,0.743 enrichment R
22,B22,0.469 enrichment R

# Source: paper PMC12136788
